Screen size: about 48,000 compounds; about 1,200 (2.5%) were called active. Another 2% or so got no clear call; they are omitted.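 How the source made its calls: active means activation of at least 60% and not above a set upper limit (about 1 call in 100 departs from these limits); inconclusive means activation of 40% to 60%, or above that upper limit; inactive means activation under 40%.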 The list shows a part of the results.
Target: Probable G-protein coupled receptor 32 (Homo sapiens) (UniProt O75388)
Assay: qHTS for Agonists of Human Resolvin D1 Receptor DRV1; further: 0% is about no effect
Conditions: CHO-K1 GPR32 beta-arrestin PathHunter luminescence, 90 min; at 76.9 µM; active compounds read high; zero percent set by DMSO-only wells
How it was run: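 PathHunter enzyme-fragment complementation, CHO-K1 GPR32 stable line; 2,500 cells/well, overnight attach; cpd 90 min 37 °C 5% CO2; detection reagent 1 h RT; chemiluminescence. DMSO = EC0.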

Chain of UniProt O75388 (O75388 whole entry, looked up): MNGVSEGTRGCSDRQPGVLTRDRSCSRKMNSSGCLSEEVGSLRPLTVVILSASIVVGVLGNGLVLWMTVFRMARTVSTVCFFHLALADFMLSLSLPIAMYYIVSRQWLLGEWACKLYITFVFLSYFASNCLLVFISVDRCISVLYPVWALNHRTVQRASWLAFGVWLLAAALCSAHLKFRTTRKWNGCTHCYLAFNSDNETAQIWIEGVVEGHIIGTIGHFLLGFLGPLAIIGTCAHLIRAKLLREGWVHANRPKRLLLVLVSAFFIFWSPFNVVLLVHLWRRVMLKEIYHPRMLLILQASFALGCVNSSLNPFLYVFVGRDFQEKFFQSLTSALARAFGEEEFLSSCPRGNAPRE

activation, inactive:
COc1cccc(C(=O)CC2(O)C(=O)Nc3ccc(Cl)cc32)c1 (centres undefined) -32.4%, COc1cc(C)ccc1OCCSc1nc(-c2cccc(C)c2)nc2cc(=O)[nH]n12 -35.5%, Cc1nc(CC(=O)Nc2cc(Cl)ccc2C)cs1 -12.8%, COc1ccc(-n2nnc(-c3nc(-c4cccs4)no3)c2N)cc1OC 11.3%, COC(=O)c1c(NC(=O)c2nc(SCc3cccc(C)c3)ncc2Cl)sc2c1CCCC2 -16.2%, CC(=O)N1CCCC1c1nc2ccccc2n1Cc1cccc(Cl)c1 (centres undefined) -20.3%, COc1cc(NC(=O)CC(c2ccc(C)cc2)N2Cc3ccccc3C2=O)cc(OC)c1 (centres undefined) 17.3%, Cc1ccc(-c2noc(-c3ccc(NCc4ccco4)c([N+](=O)[O-])c3)n2)cc1 10.3%, C=C(C)C1CC=C(C(=O)O)CC1 (centres undefined) -6.75%, COc1cc(C2CC(=O)c3c([nH]c(C(=O)OCC4CCCCC4)c3C)C2)cc(OC)c1OC (centres undefined) 1.66%, COc1ccc(-c2nc(C)c(CCNC(=O)C(=O)Nc3ccccc3C#N)s2)cc1OC -1.67%, CC1=C(c2ccc(F)cc2)S(=O)(=O)NC1=NCc1ccccc1F 14.5%, CCc1nn2c(=O)cc(COC(=O)c3ccc(NC(=O)c4cccs4)cc3)nc2s1 -17.1%, COc1ccccc1C(=O)Nc1nc2nc(-c3ccccc3)cc(=O)n2[nH]1 3.63%, Cc1ccccc1NS(=O)(=O)c1ccc2[nH]cc(C(=O)NC(C)c3ccccc3)c(=O)c2c1 (centres undefined) -25.5%, COc1ccc(Nc2nnc(-c3cc4c(ccc5ccccc54)oc3=O)s2)cc1 7.73%, COc1ccccc1CCNC(=O)C(=O)NCC(c1cccs1)S(=O)(=O)c1ccc(C)cc1 (centres undefined) -18.6%, CCOc1ccccc1CNC(=O)Cn1ncn2nc(-c3cccs3)cc2c1=O 0.392%, Cc1ccc(C)c(CNC(=O)C2CCN(c3nc4ccccc4nc3C(F)(F)F)CC2)c1 -9.46%, Cc1ccc(C)c2sc(NC(=O)c3ccc(S(=O)(=O)N4CCCC4)cc3)nc12 -14.4%, COc1ccc2c(c1)c1c(c(=O)n(CCc3ccccc3)c(=O)n1Cc1ccccc1)n2C -7.76%, O=C(c1cc2ccc3cccnc3c2[nH]1)N1CCN(c2cccc(C(F)(F)F)c2)CC1 -27.8%, Cc1ccc(NC(=O)c2oc3ccc(S(=O)(=O)N4CCCCC4)cc3c2C)cc1C 5.16%, COc1ccc(-c2cc(C(F)(F)F)nc(SCC(=O)N(C)Cc3ccccc3)n2)cc1OC -14.8%, CC(=O)N1CCOc2cc(S(=O)(=O)NCc3ccc(C)cc3)c(C)cc21 -9.14%, COc1ccc(N(C(=O)c2ccccc2F)S(=O)(=O)c2ccc3c(c2)n(C)c(=O)n3C)cc1 -2.52%, CCN1CCN(CCCNC(=O)c2cc3c(=O)n(CC)c4ccccc4c3s2)CC1 3.06%, Cc1c(CNCc2ccc(OC(C)C)cc2)c(C(=O)O)c(C)n1Cc1ccc(Cl)cc1 -4.25%, CCOc1ccc(CNC(=O)c2ccc3c(c2)nc2n3CCOC2)cc1 -5.37%, CCOC(=O)c1cccc(NC(=O)c2cc(S(=O)(=O)N3CCCCCC3)cn2C)c1 -1.32%, COc1ccc(CNc2oc(-c3ccc(COc4ccc(Cl)cc4)o3)nc2C#N)cc1 -20.1%, Cc1ccc(C)c(CN2C(=O)c3ccccc3S(=O)c3ccc(C(=O)N4CCC(C)CC4)cc32)c1 (centres undefined) 39.2%, CCC(C)(C)NS(=O)(=O)c1cc(-c2cc(C)no2)ccc1C -15.1%, CCN1c2ccccc2-c2nc(SCC(=O)Nc3cccc(C(F)(F)F)c3)ncc2S1(=O)=O -9.1%, COc1cc(O)ccc1C1CC(=O)Nc2c1c(=O)nc(SCc1ccccc1C)n2C (centres undefined) -14.7%, COc1ccc2nc(S(=O)Cc3ncc(C)c(OC)c3C)[nH]c2c1 (centres undefined) -10.7%, COc1ccc(CNC(=O)c2c(Nc3ccc(OC)cc3OC)sc(C(=O)c3ccc(Cl)cc3)c2N)cc1 -5.09%, CCOC(=O)CSc1nc2sc3c(c2c(=O)n1Cc1ccccc1)CCC(C(C)(C)C)C3 (centres undefined) 0.942%, Cc1ccc(CNC(=O)C2CCC(CNS(=O)(=O)c3ccc4c(c3)CCCC(=O)N4)CC2)cc1 (centres undefined) -3.49%, CC(C)OCCCNC(=O)CCCn1c(=O)[nH]c2ccsc2c1=O 4.41%, COc1ccc(CN(C(=O)c2cc3ccccc3oc2=O)C2CCS(=O)(=O)C2)cc1 (centres undefined) -10.9%, CCOc1ccc(CNC(=O)c2cc(=O)[nH]c3ccc(S(=O)(=O)N4CCCCC4)cc23)cc1 -2.13%, COc1ccc(-c2nc3c4cnn(-c5ccccc5F)c4ncn3n2)cc1 -12.9%, COC(=O)CC1Oc2ccc(F)cc2-n2cc(-c3ccc(Cl)cc3)nc21 (centres undefined) 3.73%, O=C(Nc1cccc(-c2nc3ccccc3o2)c1)c1cc([N+](=O)[O-])ccc1N1CCOCC1 -39.3%, Cc1cccc(C)c1OCCSc1nc2ccccc2n1CC(=O)O 26.4%, COc1ccc(N2CCN(S(=O)(=O)c3csc(C(N)=O)c3)CC2)cc1 -1.69%, CCN(Cc1ccccc1)C(=O)Cn1c(=O)n(-c2ccc(F)c(Cl)c2)c(=O)c2sc3ccccc3c21 -11.8%, CCOC(=O)c1ccc(NC(=O)CCS(=O)(=O)c2ccc(C)cc2)cc1 -4.95%, Cc1cccc(-c2nc(CCNC(=O)c3ccco3)cs2)c1 -7.88%, O=c1[nH]c2cc(Cl)c(Cl)cc2[nH]c1=O -4.75%, COc1ccc(NC(=O)CN2CCCN(S(=O)(=O)c3ccc(Br)cc3)CC2)c(OC)c1 -28.1%, CCOc1ccc(NC(=O)CSc2nc3c(c(=O)[nH]2)CCCC3)cc1 1.44%, COc1ccc(C)cc1NC(=O)COCc1cc(-c2cccs2)on1 -7.84%, Cc1ccc(N(C)C(=O)Cn2cnc3onc(-c4ccc(F)cc4)c3c2=O)cc1C -1.7%, COc1cc(C2c3c(oc4ccc(F)cc4c3=O)C(=O)N2c2nc(C)c(C)s2)cc(OC)c1OC (centres undefined) -12.8%, O=C(CCS(=O)(=O)c1cc(Br)cc2c1N(C(=O)C1CC1)CC2)N1CCN(c2ccc(F)cc2)CC1 -26.8%, Cc1ccc2ncc(C(=O)NCCc3ccc(S(N)(=O)=O)cc3)c(=O)n2c1 -0.391%, COc1ccc(CCNC(=O)CCCn2c(=O)c3ccccc3n(Cc3ccc(C)cc3)c2=O)cc1OC -4.41%, Cc1ccc(CCNC(=O)c2cc3c(=O)oc4ccccc4c3s2)cc1 2.59%, Cc1nn2c(C)c(C(=O)N3CCN(c4ccccc4)CC3)cnc2c1-c1ccccc1 -25.3%, COc1ccccc1OCCn1c(COc2cc(C)ccc2C)nc2ccccc21 -30.5%, CCOc1ccccc1Nc1sc(C(=O)c2ccccc2)c(N)c1C(=O)NCCc1ccccc1 -9.71%, O=C(c1ccc(Cl)cc1)N(Cc1ccco1)Cc1ccco1 -13.7%, COc1cc(NC(=O)CSc2nc3ccccc3nc2Cc2ccccc2OC)cc(OC)c1 -24.6%, COc1cccc(CNC(=O)CNS(=O)(=O)c2ccc3nc(C)sc3c2)c1 -7.03%, COc1ccc(NC(=O)Cn2c(=O)n(CC3CCCO3)c(=O)c3ccccc32)c(OC)c1 (centres undefined) -6.35%, CCC(=O)Nc1ccc(C)cc1-c1nc2ccccc2n(CC(=O)Nc2ccccc2Cl)c1=O -1.54%, COc1cc(OC)cc(C(=O)Nc2ccc3oc(-c4ccccc4C)nc3c2)c1 -1.83%, CC(C)CNc1nc(NC(C)(C)C)nc(Oc2ccc(=O)n(-c3ccccc3)n2)n1 -19.1%, COc1cccc(-c2cc(C(=O)Nc3cc(C)nn3-c3ccccc3)no2)c1 -3.27%, CCN(CC)S(=O)(=O)c1nnc(NC(=O)c2ccccc2Cl)s1 28.3%, Cc1ccccc1NC(=O)c1c(C)oc2ccc(O)c(CN3CCCC3)c12 4.32%, COc1cc(Cl)c(C)cc1NC(=O)Cn1ncc2c(=O)oc3ccccc3c21 -3.26%, COc1cc(NC(=O)C2CCCN(S(=O)(=O)c3ccc4c(c3)CCCC(=O)N4)C2)cc(OC)c1 (centres undefined) -3.17%, O=c1[nH]c2ccccc2c(=O)n1CCCl -3.64%, CCC(C(=O)OC)n1cnc2c(cnn2-c2ccc(F)cc2)c1=O (centres undefined) 5.2%, COc1ccc(-c2nc(SCC(=O)c3ccc(OC)c(Br)c3)n[nH]2)cc1 2.78%, CCC(Sc1nc2nccnc2c(=O)n1Cc1ccc(F)cc1)C(=O)NC1CCCCC1 (centres undefined) -17.9%, CCCC(=O)O[C@]1(C(=O)CO)CC[C@H]2[C@@H]3CCC4=CC(=O)CC[C@]4(C)[C@H]3[C@@H](O)C[C@@]21C 0.756%, CSc1ncc(Cl)c(C(=O)Nc2ccc(S(=O)(=O)N3CCCC(C)C3)cc2)n1 (centres undefined) -30.5%, CCOc1cccc(C2c3[nH]c4ccccc4c3CCN2C(=O)CCC2CCCC2)c1 (centres undefined) -35.5%, CCc1cccc(NC(=O)C2CCC(CNS(=O)(=O)c3csc(C(N)=O)c3)CC2)c1 (centres undefined) 8.48%

activation, active:
CCc1ccc(CNC(=O)COc2cc(=O)n(CC)c3ccccc23)cc1 117%

Source: PubChem BioAssay AID1346428 (National Center for Advancing Translational Sciences (NCATS), 2018)
